Source: publication PMC4336329 (PLoS ONE, 2015)
The whole screen tested about 310,000 compounds, of which about 2,200 (0.71%) showed an effect of 50% or more. Effects have a minus sign here. The list shows a part of the results.

These molecules were tested against human ether-à-go-go-related gene (hERG) potassium channel (human, UniProt Q12809) (assay: primary screen, population patch clamp on CHO cells stably expressing hERG).
Chain of human ether-à-go-go-related gene (hERG) potassium channel (Q12809 whole entry, looked up): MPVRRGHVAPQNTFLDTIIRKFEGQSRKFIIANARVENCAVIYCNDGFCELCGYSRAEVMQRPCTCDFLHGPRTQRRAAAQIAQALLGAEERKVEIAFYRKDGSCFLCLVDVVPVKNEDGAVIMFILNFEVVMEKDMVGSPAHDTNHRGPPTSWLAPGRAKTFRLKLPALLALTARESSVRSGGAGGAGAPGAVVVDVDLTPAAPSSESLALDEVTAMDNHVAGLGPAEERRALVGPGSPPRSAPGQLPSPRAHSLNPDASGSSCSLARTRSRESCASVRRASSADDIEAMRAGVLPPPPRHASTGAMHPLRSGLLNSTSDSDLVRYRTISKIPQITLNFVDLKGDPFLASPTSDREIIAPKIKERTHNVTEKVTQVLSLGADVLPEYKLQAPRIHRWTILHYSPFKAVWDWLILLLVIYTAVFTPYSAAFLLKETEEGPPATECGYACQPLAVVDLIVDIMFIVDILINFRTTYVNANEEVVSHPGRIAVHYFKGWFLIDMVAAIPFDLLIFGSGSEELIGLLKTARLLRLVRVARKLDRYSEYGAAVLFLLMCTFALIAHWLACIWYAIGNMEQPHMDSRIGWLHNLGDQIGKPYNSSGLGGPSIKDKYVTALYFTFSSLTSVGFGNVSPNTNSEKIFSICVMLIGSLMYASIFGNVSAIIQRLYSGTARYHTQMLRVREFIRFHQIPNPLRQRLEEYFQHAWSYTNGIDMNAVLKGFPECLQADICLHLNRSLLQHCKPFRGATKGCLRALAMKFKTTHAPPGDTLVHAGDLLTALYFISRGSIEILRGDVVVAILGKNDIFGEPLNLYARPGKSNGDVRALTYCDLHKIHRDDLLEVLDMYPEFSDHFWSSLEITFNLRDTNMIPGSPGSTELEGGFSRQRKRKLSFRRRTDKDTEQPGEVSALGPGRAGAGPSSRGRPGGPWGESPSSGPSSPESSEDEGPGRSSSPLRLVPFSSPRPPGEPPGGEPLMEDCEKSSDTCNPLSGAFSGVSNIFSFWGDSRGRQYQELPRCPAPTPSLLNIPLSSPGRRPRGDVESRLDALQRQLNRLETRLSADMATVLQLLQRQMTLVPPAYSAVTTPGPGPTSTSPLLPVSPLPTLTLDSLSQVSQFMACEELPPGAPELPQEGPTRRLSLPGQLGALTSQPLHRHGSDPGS

| SMILES | hERG current change (%, negative = inhibition) at 1uM |
| --- | --- |
| O=C1CC(c2cccc(Cl)c2)C(n2cncn2)C(=O)C1C1NCCc2ccccc21 (stereo not drawn) | 3.48% |
| Cc1ccc(S(=O)(=O)NCCNS(=O)(=O)c2ccc(C)cc2)cc1 | 14.6% |
| COc1ccc(C(=O)NCCCNC(=O)c2cccnc2)cc1OC | 12% |
| Cl.O=C1OC(CN2CCOCC2)CN1N=Cc1ccc([N+](=O)[O-])o1 (stereo not drawn) | 4.56% |
| CC(C)CNC(=O)[C@@H]1CSC2c3ccccc3C(=O)N21 (stereo partly drawn) | 4.61% |
| Cn1nc(C(=O)Oc2cc(=O)n(C)c3ccccc23)c2ccccc2c1=O | 19.2% |
| CCn1c(SCC(=O)Nc2ccc3c(c2)n(C)c(=O)n3C)nnc1-c1ccncc1 | 7.57% |
| O=C(CC1C(=O)NCCN1Cc1ccccc1C(F)(F)F)NCCN1CCCCC1=O (stereo not drawn) | 15.4% |
| COC(CN(C)S(=O)(=O)c1cc2c3c(c1)CCC(=O)N3CCC2)OC | 16.2% |
| N#Cc1c(N)nc2c(c1-c1ccncc1)CCCCC2 | 5.34% |
| CCn1nnnc1SCC(=O)N1CCOCC1 | 13.9% |
| O=C(O)c1ccc(Cl)c(S(=O)(=O)N(Cc2ccccc2)c2ccccc2)c1 | 10.1% |
| CCCc1cc(=O)[nH]c(SCc2nc3ccc([N+](=O)[O-])cc3[nH]2)n1 | 10.9% |
| Cn1cc([N+](=O)[O-])c(C(=O)Nc2ccn(C34CC5CC(CC(C5)C3)C4)n2)n1 | -3.5% |
| COCCCNC(=O)CSc1nc2ccc(N3CCOCC3)cc2c(=O)n1CCc1ccccc1 | -23.2% |
| CC(C)COC(=O)NCCCOC(=O)Nc1ccccc1 | 8.14% |
| c1ccc(-c2nc3ccccc3[nH]2)nc1 | 14.4% |
| CC1(C)Oc2ccc3ccc(=O)oc3c2/C(=C/NNC(N)=S)C1=O | 9.83% |
| Cc1cc(C)n2nc(-c3sccc3-n3cccc3)cc2n1 | 12.3% |
| CCOc1ccc(/C=C/C(=O)c2cc(Br)ccc(=O)c2O)cc1 | -0.499% |
| CCOC(=O)C1(CCCc2ccccc2)CCN(C2CCC2)CC1 | -57.1% |
| Cc1cc(Cl)ccc1NC(=O)CCN1C(=O)NC(C)(C)C1=O | 6.2% |

| SMILES | hERG current change (%, negative = inhibition) at 1uM |
| --- | --- |
| Cc1cc(C)c2nc(N3CCOCC3)c(C#N)cc2c1 | 24.1% |
| CC1=C(C(N)=O)C(c2ccccc2F)n2nc(CCCO)nc2N1 (stereo not drawn) | 15.7% |
| O=c1ccc(N=Nc2ccccc2)ccc1O | 11.8% |
| COc1ccccc1CNC(=O)C(NC(=O)c1ccc(C)cc1)C(C)C (stereo not drawn) | 3.01% |
| CCOC(=O)N1CCN(CC(O)COc2ccccc2C(C)CC)CC1.Cl (stereo not drawn) | 10.4% |
| Nc1c(C(=O)NCc2ccco2)sc2nc3c(cc12)C(=O)CCC3 | -10.5% |
| COc1ccc(CC(=O)N(C)CC(=O)Nc2c(C)cccc2C)cc1S(=O)(=O)N1CCOCC1 | 5.42% |
| Cc1cc(C)n2cc(CSc3nnnn3-c3ccccc3)nc2n1 | -5.94% |
| Cc1ccccc1NC(=O)c1ccccc1NC(=O)c1cccs1 | 13.9% |
| COc1cccc(NC(=O)[C@@H](NC(=O)N2C[C@H]3C[C@@H](C2)c2cccc(=O)n2C3)C(C)C)c1 | 17.5% |
| O=C(NCc1ccco1)c1ccc(COCC(F)(F)F)cc1 | -5.24% |
| CCCc1cc(=O)[nH]c(SCC(=O)NC2CCCc3ccccc32)n1 (stereo not drawn) | 4.91% |
| O=C(COC(=O)C1CCN(c2ccc(C(F)(F)F)cn2)CC1)c1ccc(Cl)cc1 | 14.6% |
| COc1ccc(/C=C2\SC(=O)N(CCC(=O)N3CCCCC3)C2=O)cc1OC | 9.83% |
| Cc1cc(C)n2nc(SCc3ccc(C#N)cc3)nc2n1 | 6.64% |
| COc1ccccc1N1CCN(C(c2cccs2)c2nnnn2C2CCCC2)CC1 (stereo not drawn) | 11.6% |
| CC(=O)c1sc(N/N=C\c2ccccc2O)nc1C | 11.5% |
| O=C(NC(Cc1c[nH]c2ccccc12)C(=O)NCc1ccc(F)cc1)OCc1ccccc1 (stereo not drawn) | 5.45% |
| O=C(CSc1cn(Cc2cccc(F)c2)c2ccccc12)NCc1ccc(F)cc1 | 15.4% |
| CC(C)(O)CNC(=O)C(Cc1ccccc1)N1C(=O)c2ccccc2C1=O (stereo not drawn) | 22.1% |
| Cc1cc(C(=O)NC2CCCc3c2cnn3-c2ccc(C(C)(C)C)cc2)n[nH]1 (stereo not drawn) | 7.82% |
| Cc1ccc(NC(=S)N(CCN2CCOCC2)Cc2ccccc2F)cc1 | 5.79% |

| SMILES | hERG current change (%, negative = inhibition) at 1uM |
| --- | --- |
| O=C(NCc1ccco1)C1(S(=O)(=O)c2ccc(Cl)cc2)CC1 | 11.5% |
| Cc1csc(NC(=O)CCn2c(=O)oc3ccccc32)n1 | 2.96% |
| COC(=O)CSc1cc([N+](=O)[O-])ccc1NC(=O)OC | 22.1% |
| CC(=O)c1ccc(N2C(=NC(=O)CCC3CCCC3)SC3CS(=O)(=O)CC32)cc1 (stereo not drawn) | 13.6% |
| CCCNC(=O)N1[C@H]2CC[C@@H]1C(C(=O)OC)=C(c1ccc(-c3ccccc3)c(F)c1)C2 | 13.8% |
| Cc1cc([N+](=O)[O-])nn1CC(=O)N/N=C/c1ccccc1F | 8.66% |
| COC(=O)C(C)Oc1ccc(Cl)c(CN2OCC(C)(C)C2=O)c1 (stereo not drawn) | 7.79% |
| CCCCC(=O)Nc1ncc(Br)s1 | 0.78% |
| O=C(CN1CCSCC1)N/N=C/c1cccc(Cl)c1 | 6.31% |
| CC(C)C(NC(=O)CSCc1ccc([N+](=O)[O-])cc1)C(C)C | -0.194% |
| O=C(CCCCn1c(=O)c2ccccc2n(Cc2ccc(F)cc2Cl)c1=O)NCc1ccco1 | 11.5% |
| CCN1CC(O)=C(c2nc3ccccc3s2)C1=N | 1.2% |
| O=[N+]([O-])c1cc(S(=O)(=O)N2CCCC2)ccc1NCCCN1CCOCC1 | -0.789% |
| O=C(CCSCc1ccccc1Cl)N1CCN(c2cccc(Cl)c2)CC1 | 7.76% |
| CCCOC1CCCN(C(=O)c2cc(COc3ccc(-n4cncn4)cc3)on2)C1 (stereo not drawn) | -5.67% |
| CC1CC(C)CN(S(=O)(=O)c2cc3c4c(c2)CCC(=O)N4CCC3)C1 (stereo not drawn) | 13% |
| Cc1cc2occ(CC(=O)NCc3cccs3)c2cc1C(C)C | -10.6% |
| Cc1ccc2nc(C)c(C(=O)NN=C3CCCCCC3)n2c1 | 15.2% |
| COc1ccc(/C=C2/SC(=O)N(CCNC(=O)C3COc4ccccc4O3)C2=O)cc1 (stereo not drawn) | 7.95% |
| CS(=O)(=O)Nc1ccc(C2=NN(C(=O)c3ccco3)C(c3ccccc3)C2)cc1 (stereo not drawn) | -23.3% |
| CCOC(=O)c1c(C)[nH]c(C(=O)COC(=O)CN2C(=O)C3CCCCC3C2=O)c1C (stereo not drawn) | 0.234% |
| O=S1(=O)CCOC[C@H](c2ccccc2)N1Cc1cccc(F)c1 | 8.89% |

| SMILES | hERG current change (%, negative = inhibition) at 1uM |
| --- | --- |
| C=CCN(CC=C)CCOc1ccccc1[N+](=O)[O-].O=C(O)C(=O)O | 1.55% |
| CCCNC(=O)N1CCC(C(=O)c2ccc(Cl)cc2)CC1 | 5.87% |
| Cc1ccc(-c2n[nH]c(Cc3ccccc3)n2)cc1 | 6.85% |
| CCOc1ccc(CN2CCN(Cc3cccn3-c3nccs3)CC2CCO)cc1 (stereo not drawn) | -84% |
| COC(=O)c1sccc1NC(=O)Nc1cc(C)ccc1C | 8.58% |
| Cc1cccc(C(=O)NC(C)C2CC3CCC2C3)c1 (stereo not drawn) | 7.22% |
| CC(=O)N1CCc2cc(Br)cc(S(=O)(=O)NCc3ccc(Cl)cc3)c21 | -11.6% |
| Cc1ccc(-c2noc(CN3CCN(Cc4ccccc4)CC3)n2)cc1 | 3.56% |
| COc1ccc(/C=N/NC(=S)Nc2cc(S(=O)(=O)N3CCOCC3)ccc2N2CCOCC2)cc1O | 2.39% |
| Cc1cccc(-n2c(-c3csc(C(C)C)c3)n[nH]c2=S)c1 | -3.85% |
| NNC(=O)c1oc2ccccc2c1-n1cccc1 | 6.33% |
| CCN(CC)C(=O)CSc1ncnc2sc(C)c(C)c12 | -3.82% |
| CC1CC(C)CN(C(=O)COC(=O)CCCN2C(=O)c3cccc4cccc(c34)C2=O)C1 (stereo not drawn) | 9.38% |
| COCCn1c(=O)c2c(nc3n2CCCN3CCc2ccc(OC)c(OC)c2)n(C)c1=O | 6.66% |
| Cc1cccc(N/N=C2/COC(C)(C)CC2=O)c1 | 8.8% |
| C=CCNC(=O)c1ccccc1NC(=O)C1CCN(S(=O)(=O)c2ccc(SC)cc2)CC1 | -56.8% |
| N#Cc1ccccc1NC(=O)COC(=O)C1CCN(C(=O)c2ccc(Cl)cc2)CC1 | -24.8% |
| COc1ccccc1/C=C1\SC(=S)N(Nc2nc(C)cc(C)n2)C1=O | -2.05% |
| Cn1c(N)c(C(=O)COC(=O)/C=C/c2ccc(F)cc2)c(=O)n(C)c1=O | -9.89% |
| COc1cc([C@@H]2c3cc4c(cc3[C@@H](O[C@@H]3O[C@@H]5CO[C@@H](C)O[C@H]5[C@H](O)[C@H]3O)[C@H]3COC(=O)[C@H]23)OCO4)cc(OC)c1O | 15.6% |
| COc1ccc(N(CC(=O)NCc2ccccc2OC)S(=O)(=O)c2ccccc2[N+](=O)[O-])c(OC)c1 | 11.8% |
